The other results are listed elsewhere or left out. At the low end of the ranking the order means little.

The target of this experiment is MAX:MAX (p21) (UniProt P61244-2). Kind of experiment: protein-binding microarray (anti-MAX antibody). To be noted: PBM: 15 mM Tris-HCl pH 7.5, 100 mM KCl, 0.075% NP40, 7.5 mM beta-mercaptoethanol, 375 ng/ul BSA, 8 ng/ul poly(dA-dT):(dA-dT), 550 ng complex, 60 min, room …; high values mean tight binding; double strand, one strand shown; sequences stand for … in CCGGC…TTAATAGCTAAGATTACTATATCGACG
As to TGATTATCTGTA, the binding signal (log2 normalized fluorescence) is -1.04.

Take TGAAATCCTGTA: the binding signal (log2 normalized fluorescence) was -0.887.

In the case of TGAGTTGCAGTA, the binding signal (log2 normalized fluorescence) was -0.74.

In turn, TGACAAAACGTA registered a binding signal (log2 normalized fluorescence) of -0.112.

As for TGATATGGAGTA, the binding signal (log2 normalized fluorescence) was -0.82.

Sequence TGATATCCAGTA gave a binding signal (log2 normalized fluorescence) of -1.08.

AGACACGAGGTA returned a binding signal (log2 normalized fluorescence) of 3.44.

In the case of TGATAGATAGTA, the binding signal (log2 normalized fluorescence) was -1.1.

TGAGATCTCGTA came in with a binding signal (log2 normalized fluorescence) of -0.834.

TGACCCTCGGTA registered a binding signal (log2 normalized fluorescence) of -0.472.

As for GGAGCCGTGGTA, the binding signal (log2 normalized fluorescence) came out at 0.657.

In the case of TGACACGCGATC, the binding signal (log2 normalized fluorescence) was 2.93.

CGACACGGCGTA: the binding signal (log2 normalized fluorescence) is 0.94.

Turning to TGAGTGGCTGTA, the binding signal (log2 normalized fluorescence) was found to be 0.1.

TGACATAGCGTA showed a binding signal (log2 normalized fluorescence) of -0.366.

In turn, TGACTGTTAGTA yielded a binding signal (log2 normalized fluorescence) of -0.399.

Sequence TGAATAGTCGTA had a binding signal (log2 normalized fluorescence) of -1.18.

Sequence TGATGTTTTGTA came in with a binding signal (log2 normalized fluorescence) of -0.281.

Turning to TGAGAAATCGTA, the binding signal (log2 normalized fluorescence) is -0.612.

Sequence TGAACATATGTA showed a binding signal (log2 normalized fluorescence) of 2.12.

As for TGACACGACATA, the binding signal (log2 normalized fluorescence) turned out to be 1.63.

For the sequence ATACACGTGGTA, the binding signal (log2 normalized fluorescence) stood at 3.25.

The sequence TAAGTGACGTAG had a binding signal (log2 normalized fluorescence) of -0.575.

TGAGTTATTGTA had a binding signal (log2 normalized fluorescence) of -1.01.

In turn, TGACCCAATGTA showed a binding signal (log2 normalized fluorescence) of -0.173.

Take ATCAGGGAATAG: the binding signal (log2 normalized fluorescence) was 0.438.

For the sequence TGAAATAGAGTA, the binding signal (log2 normalized fluorescence) is -1.09.

Regarding TGACCTTGGGTA, the binding signal (log2 normalized fluorescence) was -0.45.

TGATAGGAGGTA came in with a binding signal (log2 normalized fluorescence) of -0.743.

For the sequence TGAGGTACTGTA, the binding signal (log2 normalized fluorescence) is -0.419.

In the case of TGACTTCGAGTA, the binding signal (log2 normalized fluorescence) was -0.833.

Turning to TGAGCGTCGGTA, the binding signal (log2 normalized fluorescence) was -0.699.

Take AGACGCGGGGTA: the binding signal (log2 normalized fluorescence) was 1.2.

Turning to TGACTATCTGTA, the binding signal (log2 normalized fluorescence) was -0.776.

As for TGAACCGCCGTA, the binding signal (log2 normalized fluorescence) was -0.579.

For TGACACGTTACA, the binding signal (log2 normalized fluorescence) is 3.06.

With TGACCCGTGATA, the binding signal (log2 normalized fluorescence) came to 2.

Turning to TGAGTGAGCGTA, the binding signal (log2 normalized fluorescence) is -0.515.

Consider TGTTCCGTGGTA, for which the binding signal (log2 normalized fluorescence) turned out to be 0.387.

In turn, TGACAGCACGTA gave a binding signal (log2 normalized fluorescence) of 1.16.

As to TGACACTCTGTA, the binding signal (log2 normalized fluorescence) turned out to be 0.154.

As for TGAGCAATGGTA, the binding signal (log2 normalized fluorescence) is -0.491.

In the case of TGAAGAAAGGTA, the binding signal (log2 normalized fluorescence) is -0.473.

In turn, TGACCGAACGTA returned a binding signal (log2 normalized fluorescence) of -0.486.

In turn, TGAGTGTGTGTA returned a binding signal (log2 normalized fluorescence) of 0.665.

As for TGATCTCTCGTA, the binding signal (log2 normalized fluorescence) was -0.941.

In the case of TGAAAAGAAGTA, the binding signal (log2 normalized fluorescence) was -0.248.

For the sequence TGACACGTGAAC, the binding signal (log2 normalized fluorescence) was 3.16.

With TGAAACTTGGTA, the binding signal (log2 normalized fluorescence) is -0.705.

As for AGACGCATGGTA, the binding signal (log2 normalized fluorescence) came out at 3.11.

Sequence TGATTGGTGGTA returned a binding signal (log2 normalized fluorescence) of -0.596.

In turn, TGATACGGAGTA returned a binding signal (log2 normalized fluorescence) of -0.967.

In the case of TGAGCTTCGGTA, the binding signal (log2 normalized fluorescence) was -1.1.

With TGATGGCATGTA, the binding signal (log2 normalized fluorescence) stood at 1.75.

Turning to TGAACTTTTGTA, the binding signal (log2 normalized fluorescence) is -1.09.

Consider TGAGATCTTGTA, for which the binding signal (log2 normalized fluorescence) was -1.17.

Sequence TCAGAGACGTTG came in with a binding signal (log2 normalized fluorescence) of -0.698.

On to TGACTCGAGCTA, for which the binding signal (log2 normalized fluorescence) was -0.172.

The sequence TGACTATTTGTA displayed a binding signal (log2 normalized fluorescence) of -1.01.

Sequence TGATTTAGCGTA came in with a binding signal (log2 normalized fluorescence) of -1.11.

With TGAAGCGTAGTA, the binding signal (log2 normalized fluorescence) was -0.753.

On to TCACACCTCGTA, for which the binding signal (log2 normalized fluorescence) turned out to be 2.28.

Turning to TTAGACGTGGTA, the binding signal (log2 normalized fluorescence) turned out to be 1.04.

Sequence TGAAACAGCGTA showed a binding signal (log2 normalized fluorescence) of -0.261.

For TGAAGGATCGTA, the binding signal (log2 normalized fluorescence) is -0.663.

Sequence TGATTCGACGTA registered a binding signal (log2 normalized fluorescence) of -0.8.

For TGAGGTGGCGTA, the binding signal (log2 normalized fluorescence) is -0.248.

Regarding TGAGCACCCGTA, the binding signal (log2 normalized fluorescence) turned out to be 0.168.

As for TGACTGAGAGTA, the binding signal (log2 normalized fluorescence) is -0.673.

With TGAATGGCCGTA, the binding signal (log2 normalized fluorescence) came to 0.498.

Regarding TGAGCACACGTA, the binding signal (log2 normalized fluorescence) amounted to 1.46.

Regarding TGATCACGCGTA, the binding signal (log2 normalized fluorescence) amounted to 2.73.

Consider TGACACGTGCGC, for which the binding signal (log2 normalized fluorescence) worked out at 3.16.

The sequence TGAATATTGGTA displayed a binding signal (log2 normalized fluorescence) of -0.963.

In turn, TGACCTGGAGTA yielded a binding signal (log2 normalized fluorescence) of -0.329.

For the origin of these results see PMC5515408.
